Test results: the supplement of paper PMC8728848
The other results are listed elsewhere or left out.

What was measured:
Experiment in all cases: glycan array binding signal (z-score within array); higher = stronger binding
Settings in all cases: glycan notation: IUPAC condensed, linker removed
[1] = biological target: Kdn(a2-3)Gal(b1-4)[Fuc(a1-3)]GlcNAc
Method in brief: (§1)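 The Consortium for Functional Glycomics database supplied 3228 glycan arrays, of which those lacking an available protein sequence were dropped. The binding signal, a within-array Z-score, was averaged across arrays of the same protein sequence and across linkers. Negative scores can be read as non-binding.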

Kdn(a2-6)Gal(b1-4)GlcNAc = biological target: Kdn(a2-6)Gal(b1-4)GlcNAc
Method in brief: as §1

[2] = biological target: Man(a1-2)Man(a1-2)Man(a1-3)Man
Method in brief: as §1

[3] = biological target: Man(a1-2)Man(a1-2)Man(a1-6)[Man(a1-3)]Man
Method in brief: as §1

Man(a1-2)Man(a1-3)Man = biological target: Man(a1-2)Man(a1-3)Man
Method in brief: as §1

[4] = biological target: Man(a1-2)Man(a1-3)[Man(a1-2)Man(a1-6)]Man
Method in brief: as §1

[5] = biological target: Man(a1-2)Man(a1-3)[Man(a1-2)Man(a1-6)]Man(a1-6)[Man(a1-2)Man(a1-2)Man(a1-3)]Man
Method in brief: as §1

[6] = biological target: Man(a1-2)Man(a1-3)[Man(a1-2)Man(a1-6)]Man(a1-6)[Man(a1-2)Man(a1-2)Man(a1-3)]Man(b1-4)GlcNAc(b1-4)GlcNAc
Method in brief: as §1

[7] = biological target: Man(a1-2)Man(a1-3)[Man(a1-6)]Man(a1-6)[Man(a1-2)Man(a1-3)]Man(b1-4)GlcNAc(b1-4)GlcNAc
Method in brief: as §1

[8] = biological target: Man(a1-2)Man(a1-6)[Man(a1-3)]Man(a1-6)[Man(a1-2)Man(a1-2)Man(a1-3)]Man
Method in brief: as §1

[9] = biological target: Man(a1-2)Man(a1-6)[Man(a1-3)]Man(a1-6)[Man(a1-2)Man(a1-2)Man(a1-3)]Man(b1-4)GlcNAc(b1-4)GlcNAc
Method in brief: as §1

Man(a1-3)[Man(a1-6)]Man = biological target: Man(a1-3)[Man(a1-6)]Man
Method in brief: as §1

[10] = biological target: Man(a1-3)[Man(a1-6)]Man(a1-6)[Man(a1-2)Man(a1-3)]Man(b1-4)GlcNAc(b1-4)GlcNAc
Method in brief: as §1

[11] = biological target: Man(a1-3)[Man(a1-6)]Man(a1-6)[Man(a1-3)]Man
Method in brief: as §1

[12] = biological target: Man(a1-3)[Man(a1-6)]Man(a1-6)[Man(a1-3)]Man(b1-4)GlcNAc(b1-4)GlcNAc
Method in brief: as §1

[13] = biological target: Man(a1-3)[Man(a1-6)]Man(b1-4)GlcNAc(b1-4)GlcNAc
Method in brief: as §1

Man(a1-6)Man = biological target: Man(a1-6)Man
Method in brief: as §1

Man(b1-4)GlcNAc = biological target: Man(b1-4)GlcNAc
Method in brief: as §1

Neu5Ac(a2-3)Gal = biological target: Neu5Ac(a2-3)Gal
Method in brief: as §1

[14] = biological target: Neu5Ac(a2-3)Gal(b1-3)GalNAc
Method in brief: as §1

[15] = biological target: Neu5Ac(a2-3)Gal(b1-3)GalNAc(b1-3)Gal(a1-4)Gal(b1-4)Glc
Method in brief: as §1

[16] = biological target: Neu5Ac(a2-3)Gal(b1-3)GalNAc(b1-4)[Neu5Ac(a2-3)]Gal(b1-4)Glc
Method in brief: as §1

[17] = biological target: Neu5Ac(a2-3)Gal(b1-3)GalNAc6S
Method in brief: as §1

[18] = biological target: Neu5Ac(a2-3)Gal(b1-3)GlcNAc
Method in brief: as §1

[19] = biological target: Neu5Ac(a2-3)Gal(b1-3)GlcNAc(b1-2)Man(a1-3)[Neu5Ac(a2-3)Gal(b1-3)GlcNAc(b1-2)Man(a1-6)]Man(b1-4)GlcNAc(b1-4)GlcNAc
Method in brief: as §1

[20] = biological target: Neu5Ac(a2-3)Gal(b1-3)GlcNAc(b1-3)Gal(b1-3)GlcNAc
Method in brief: as §1

[21] = biological target: Neu5Ac(a2-3)Gal(b1-3)GlcNAc(b1-3)Gal(b1-4)GlcNAc
Method in brief: as §1

[22] = biological target: Neu5Ac(a2-3)Gal(b1-3)GlcNAc(b1-3)GalNAc
Method in brief: as §1

[23] = biological target: Neu5Ac(a2-3)Gal(b1-3)GlcNAc6S
Method in brief: as §1

[24] = biological target: Neu5Ac(a2-3)Gal(b1-3)[Fuc(a1-4)]GlcNAc
Method in brief: as §1

[25] = biological target: Neu5Ac(a2-3)Gal(b1-3)[Fuc(a1-4)]GlcNAc(b1-3)Gal(b1-3)[Fuc(a1-4)]GlcNAc
Method in brief: as §1

[26] = biological target: Neu5Ac(a2-3)Gal(b1-3)[Fuc(a1-4)]GlcNAc(b1-3)Gal(b1-4)[Fuc(a1-3)]GlcNAc
Method in brief: as §1

[27] = biological target: Neu5Ac(a2-3)Gal(b1-3)[Neu5Ac(a2-3)Gal(b1-4)]GlcNAc
Method in brief: as §1

[28] = biological target: Neu5Ac(a2-3)Gal(b1-3)[Neu5Ac(a2-6)]GalNAc
Method in brief: as §1

Neu5Ac(a2-3)Gal(b1-4)Glc = biological target: Neu5Ac(a2-3)Gal(b1-4)Glc
Method in brief: as §1

B1: Ecp6 (Cladosporium fulvum), B3VBK9 (protein)
chain: MQSMILFAAALMGAAVNGFVLPRTDDPDCETKATDCGSTSNIKYTVVKGDTLTSIAKKFKSGICNIVSVNKLANPNLIELGATLIIPENCSNPDNKSCVSTPAEPTETCVPGLPGSYTIVSGDTLTNISQDFNITLDSLIAANTQIENPDAIDVGQIITVPVCPSSQCEAVGTYNIVAGDLFVDLAATYHTTIGQIKALNNNVNPSKLKVGQQIILPQDCKNVTTAVA
**Q.** For B1, which “glycan array binding signal (z-score)” value [1] is on record?
**A.** The value was -0.069.

**Q.** What about the “glycan array binding signal (z-score)” value (Kdn(a2-6)Gal(b1-4)GlcNAc) of the same binder?
**A.** The value was -0.079.

**Q.** And the “glycan array binding signal (z-score)” value [2]?
**A.** Its value is -0.067.

**Q.** And the “glycan array binding signal (z-score)” value [3]?
**A.** The value was -0.105.

**Q.** What about the “glycan array binding signal (z-score)” value (Man(a1-2)Man(a1-3)Man) of the same binder?
**A.** The value was -0.058.

**Q.** What about the “glycan array binding signal (z-score)” value [4] of the same binder?
**A.** The value was -0.083.

**Q.** What about the “glycan array binding signal (z-score)” value [5] of the same binder?
**A.** The value was -0.096.

**Q.** What about the “glycan array binding signal (z-score)” value [6] of the same binder?
**A.** The value was -0.09.

**Q.** What about the “glycan array binding signal (z-score)” value [7] of the same binder?
**A.** The value was -0.07.

**Q.** What about the “glycan array binding signal (z-score)” value [8] of the same binder?
**A.** Its value is -0.085.

**Q.** What about the “glycan array binding signal (z-score)” value [9] of the same binder?
**A.** The value was -0.11.

**Q.** What about the “glycan array binding signal (z-score)” value (Man(a1-3)[Man(a1-6)]Man) of the same binder?
**A.** Its value is -0.085.

**Q.** And the “glycan array binding signal (z-score)” value [10]?
**A.** Its value is -0.059.

**Q.** And the “glycan array binding signal (z-score)” value [11]?
**A.** Its value is -0.103.

**Q.** And the “glycan array binding signal (z-score)” value [12]?
**A.** Its value is -0.108.

**Q.** And the “glycan array binding signal (z-score)” value [13]?
**A.** Its value is -0.085.

**Q.** What about the “glycan array binding signal (z-score)” value (Man(a1-6)Man) of the same binder?
**A.** The value was -0.091.

**Q.** What about the “glycan array binding signal (z-score)” value (Man(b1-4)GlcNAc) of the same binder?
**A.** Its value is -0.085.

**Q.** And the “glycan array binding signal (z-score)” value (Neu5Ac(a2-3)Gal)?
**A.** Its value is -0.077.

**Q.** And the “glycan array binding signal (z-score)” value [14]?
**A.** Its value is -0.099.

**Q.** What about the “glycan array binding signal (z-score)” value [15] of the same binder?
**A.** Its value is -0.057.

**Q.** What about the “glycan array binding signal (z-score)” value [16] of the same binder?
**A.** The value was -0.083.

**Q.** What about the “glycan array binding signal (z-score)” value [17] of the same binder?
**A.** Its value is -0.082.

**Q.** And the “glycan array binding signal (z-score)” value [18]?
**A.** Its value is -0.095.

**Q.** And the “glycan array binding signal (z-score)” value [19]?
**A.** Its value is -0.105.

**Q.** And the “glycan array binding signal (z-score)” value [20]?
**A.** The value was -0.095.

**Q.** And the “glycan array binding signal (z-score)” value [21]?
**A.** Its value is -0.097.

**Q.** And the “glycan array binding signal (z-score)” value [22]?
**A.** Its value is -0.121.

**Q.** What about the “glycan array binding signal (z-score)” value [23] of the same binder?
**A.** Its value is -0.094.

**Q.** And the “glycan array binding signal (z-score)” value [24]?
**A.** Its value is -0.09.

**Q.** What about the “glycan array binding signal (z-score)” value [25] of the same binder?
**A.** The value was -0.066.

**Q.** What about the “glycan array binding signal (z-score)” value [26] of the same binder?
**A.** The value was -0.067.

**Q.** What about the “glycan array binding signal (z-score)” value [27] of the same binder?
**A.** The value was -0.091.

**Q.** What about the “glycan array binding signal (z-score)” value [28] of the same binder?
**A.** The value was -0.083.

**Q.** And the “glycan array binding signal (z-score)” value (Neu5Ac(a2-3)Gal(b1-4)Glc)?
**A.** Its value is -0.097.
